Reference: US20090082368A1, “METHODS OF MODULATING NEUROTROPHIN-MEDIATED ACTIVITY” (PainCeptor Pharma Corporation, priority 2007, published 2009)
Where two headings read alike, the source gives them in different places. At least one compound was matched to its structure with a doubt left.

System: NGF receptors on PC12 cells (TrkA+p75)
Experiment: NGF binding (125I-NGF) using PC12 cells
Parameters: species or system rat
Experimental: NGF binding was evaluated using methods familiar to those who are skilled in the art. Briefly, cells expressing one or both NGF receptors (PC12: TrkA+p75; A875: p75 alone; HEK/CHO_trkA: TrkA alone) were harvested by replacing the medium with the cell dissociation buffer (Amersham) and incubating at 37° C. for 15 min. […] For most compounds, multiple dose-response curves were generated.
The IC50 data shown in Tables A-J were acquired using the procedure described herein using PC12 cells.

[1] = Table F (Formula IV), NGF binding, PC12 cells, read-out: IC50
[2] = Table B (Formula Ib), NGF binding, PC12 cells, read-out: IC50
[3] = Table A (Formula Ia), NGF binding, PC12 cells, read-out: IC50

`O=C(O)c1cccc(N2C(=O)c3ccc4c5c(ccc(c35)C2=O)C(=O)N(c2cccc(C(=O)O)c2)C4=O)c1` [Compound 1D] gave an IC50 [1] of under 10 µM.
In the case of `O=C(O)c1cccc(N2Cc3cc(Br)ccc3C2=O)c1` [Compound 4A], the IC50 [2] is reported as over 50 µM.
Molecule `O=C(O)c1ccc(N2C(=O)c3ccc(C(=O)O)cc3C2=O)cc1` [Compound 4] has an IC50 [3] of 30 to 50 µM.
With `O=C(O)c1cccc(N2Cc3cc(Cl)ccc3C2=O)c1` [Compound 5A] the IC50 [2] was over 50 µM.
In the case of `O=C(O)CCC(C(=O)O)N1C(=O)c2ccc3c4c(ccc(c24)C1=O)C(=O)N(c1cc(C(=O)O)ccc1Cl)C3=O` (stereo not shown) [Compound 7D], the IC50 [1] is reported as under 10 µM.
For `O=C(O)CCC(C(=O)O)N1C(=O)c2ccc3c4c(ccc(c24)C1=O)C(=O)N(c1cccc(C(=O)O)c1)C3=O` (stereo not shown) [Compound 8D], the IC50 [1] was 30 to 50 µM.
For `N#Cc1ccc2c(c1)CN(c1ccc(C(=O)O)cc1)C2=O` [Compound 9A], the IC50 [2] was over 50 µM.
Work on `NC(=O)c1ccc2c(c1)CN(c1cccc(C(=O)O)c1)C2=O` [Compound 11A] yielded an IC50 [2] of over 50 µM.
With `O=C(O)c1ccc(N2C(=O)c3cc(Cl)c(Cl)cc3C2=O)cc1` [Compound 12] the IC50 [3] was over 50 µM.
`O=C(O)c1cccc(N2Cc3cc(-c4nnn[nH]4)ccc3C2=O)c1` [Compound 13A] gave an IC50 [2] of 10 to 29 µM.
`O=C(O)c1cccc(N2C(=O)c3cc(Cl)c(Cl)cc3C2=O)c1` [Compound 13] was tested, and the IC50 [3] was over 50 µM.
For `O=C(O)c1ccc(N2C(=O)c3cccc(F)c3C2=O)cc1` [Compound 14], the IC50 [3] was over 50 µM.
`O=C(O)c1cccc(N2C(=O)c3cc4cccc([N+](=O)[O-])c4cc3C2=O)c1` [Compound 22] was tested, and the IC50 [3] was over 50 µM.
`O=C(O)CCCN1C(=O)c2ccc(-c3cccc(C(=O)O)c3)cc2C1=O` [Compound 28] was tested, and the IC50 [3] was 30 to 50 µM.
Work on `O=C(O)CCCN1C(=O)c2ccc(-c3ccc(C(=O)O)cc3)cc2C1=O` [Compound 29] yielded an IC50 [3] of 30 to 50 µM.
In the case of `O=C(O)c1cccc(NC(=O)c2ccc3c(c2)C(=O)N(c2cccc(C(=O)O)c2)C3=O)c1` [Compound 31], the IC50 [3] is reported as 10 to 29 µM.
`O=C(O)CCCN1C(=O)c2cccc3cc(-c4cccc(C(=O)O)c4)cc(c23)C1=O` [Compound 45G] was tested, and the IC50 (Table 2, read-out: NGF Binding Assay IC50) was under 10 µM and the IC50 (Table J (Formula VIII), NGF binding, PC12 cells, read-out: IC50) was under 10 µM.
Molecule `O=C(O)c1cc(N2C(=O)c3ccc(C(=O)O)cc3C2=O)cc(N2C(=O)c3ccc(C(=O)O)cc3C2=O)c1` [Compound 46C] has an IC50 (Table E (Formula IIIA), NGF binding, PC12 cells, read-out: IC50) of 10 to 29 µM.
